According to PubChem BioAssay AID995 (National Center for Advancing Translational Sciences (NCATS), 2007):
Where “and” joins values, the source holds several entries; their conditions need not be identical. Identical values can stand only once. Out of some 72,000 compounds screened, about 710 (0.99%) were called active. The shares of active, inactive and inconclusive entries below differ from those in the screen. The call rests on the fitted dose curve; in most records, active means well fitted inhibition curve with a large enough effect; inconclusive means small, poorly fitted or top-dose-only effect; inactive means no such curve, though single readings can be large or run the other way. Potencies beside an inconclusive call are fits to weak or partial responses and may not hold up.

Test: qHTS Assay for Inhibitors of the ERK Signaling Pathway using a Homogeneous Screening Assay; further: nearly all actives have a fitted effect of over 55% in size
Details: HEK293-V1b, vasopressin-stimulated pERK AlphaScreen; activity, negative = inhibition: at 57.5 µM (top of the series) unless noted
Summary of the method: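 HEK293 cells stably expressing V1b receptor, seeded overnight in 1% FBS, were treated with compounds for 30 min at 37C, then stimulated 5 min with 25 nM vasopressin; phospho-ERK read by AlphaScreen SureFire after lysis.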
On the % scale 0 is the no-effect control and ±100 the full control effect; potency means the concentration at half of the fitted maximal effect; tags describe the fitted curve by direction and shape.

Compound | Potency | activity, negative = inhibition
CCCCN1C2CCC1CC(OC(c1ccc(F)cc1)c1ccc(F)cc1)C2 (centres undefined) | inconclusive: 0.199 µM [inhibitor, partial curve, poor fit] | –
O=C1CC(N2CCC(n3c(=O)[nH]c4ccccc43)CC2)C(=O)N1c1ccc(F)cc1 (centres undefined) | – | inactive: 11.4%
CC(C)(Cc1c[nH]c2ccc(Cl)cc12)NCCOc1ccccc1OCC1CC1 | active: 39.8 µM | –
Nc1nc2ccc(Cl)cc2c2nc(-c3ccco3)nn12 | inconclusive: 3.98 µM [inhibitor, full curve] | –
COc1ccc(N2CCN(CCCN)CC2)cc1 | – | inactive: -18.9%
C#CCN1C(C)=C(C(=O)CCO)[C@@H](c2cccc(-n3oo3)c2)C(C(=O)OC)=C1C | inconclusive: 39.8 µM [inhibitor, single point] | –
O=c1[nH]c(=O)n(Cc2ccco2)c(O)c1C=NCc1cccs1 | inconclusive: 20 µM [inhibitor, partial curve] | –
CCOC(=O)C1SC2(C(F)F)CC1(O)c1c(c(OC)c3occc3c1OC)O2 (centres undefined) | active: 20 µM | –
CN1CCN(C(=O)COc2ccc(-c3nc4ccccc4s3)cc2)CC1 | inconclusive: 31.6 µM [inhibitor, single point] | –
COCCCn1c(N)c(C(=O)OC(C)COC)c2nc3ccccc3nc21 (centres undefined) | inconclusive: 15.8 µM [inhibitor, single point] | –
c1ccc(N=Nc2ccccc2)cc1 | inactive | –
CN1C[C@H](C(=O)N[C@@]2(C)O[C@@]3(O)[C@H]4CCCN4C(=O)[C@@H](Cc4ccccc4)N3C2=O)C=C2c3cccc4[nH]cc(c34)C[C@@H]21 | – | inactive: 7.68% [at 11.5 µM]
COc1cc(Cn2c(=O)oc3ccc(C)cc32)ccc1OC(C)C | inconclusive: 12.6 µM [inhibitor, partial curve] | –
CN1CCN(c2ccc([N+](=O)[O-])c3[nH]o[n+](=O)c23)CC1 | inconclusive: 6.31 µM [inhibitor, single point] | –
Fc1ccc(C(OCCN2CCN(CCCc3ccccc3)CC2)c2ccc(F)cc2)cc1 | inactive and inconclusive: 15.8 µM [inhibitor, partial curve] | –
C=C(C)C1CNC(C(=O)O)C1CC(=O)O (centres undefined) | inconclusive: 15.8 µM [inhibitor, single point] | –
O=c1c2ccccc2nc(N2CCCC2)n1-c1ccc(Cl)cc1 | inconclusive: 15.8 µM [inhibitor, partial curve] | –
CSc1nnc([C@@H](N)Cc2ccccc2)o1 | – | inconclusive: -30.4% [inhibitor]
N#CC(Cl)Cl | – | inactive: 44.2%
Nc1ccc(S(=O)(=O)c2ccc(NCN3C(=O)NC(=O)C(=O)C3=O)cc2)cc1 | inconclusive: 5.01 µM [inhibitor, partial curve] | –
COc1cc([C@@H](O)CN)ccc1O | – | inactive: 10.4%
O=C1C=C2C(=CCOC2O)O1 (centres undefined) | active: 31.6 µM | –
CCC(N)C(O)c1ccc(O)c(O)c1 (centres undefined) | inconclusive: 5.01 µM [inhibitor, full curve] | –

Compound | Potency | activity, negative = inhibition
CC1=C(O)C(=O)C=C2C1=CC=C1[C@]2(C)CC[C@@]2(C)C3C[C@](C)(C(=O)O)CC[C@@]3(C)CC[C@@]12C (some centres undefined) | active: 31.6 µM | –
CC(C)CC(C)Nc1ccc(Nc2ccccc2)cc1 (centres undefined) | inconclusive: 31.6 µM [inhibitor, partial curve, poor fit] | –
CCn1cc(C(=O)O)c(=O)c2ccc(C)nc21 | – | inconclusive: -35.9% [inhibitor] [at 25.7 µM]
CN(C)c1ccc(N=Nc2ccccc2)cc1 | inconclusive: 25.1 µM [inhibitor, partial curve] | –
O=C(NCc1ccc2c(c1)OCO2)c1cc(-n2cnnc2)ccc1Cl | inconclusive: 15.8 µM [inhibitor, partial curve] | –
CC(=O)N1CCN(c2ccc(N=Cc3c(O)n(-c4ccc(Cl)cc4)c(=O)[nH]c3=O)cc2)CC1 | inconclusive: 20 µM [inhibitor, partial curve] | –
CCOc1cc(-c2ccc(N)c(OCC)c2)ccc1N | inconclusive: 31.6 µM [inhibitor, single point] | –
COc1ccccc1-n1c(-c2ccoc2)nc2ccccc2c1=O | inconclusive: 1 µM [inhibitor, full curve] | –
Cc1cccc2c3c(ccc12)C1=C(C(=O)C3=O)C(C)CO1 (centres undefined) | inconclusive: 31.6 µM [inhibitor, partial curve] | –
NC(=O)CS(=O)C(c1ccccc1)c1ccccc1 (centres undefined) | inconclusive: 15.8 µM [inhibitor, single point] | –
CCCn1c(C)c(C(=O)c2cccc3ccccc23)c2ccccc21 | – | inactive: 34.7%
C=C(C)C1Cc2c(ccc3c2OC2COc4cc(OC)c(OC)cc4C2C3=O)O1 (centres undefined) | inconclusive: 0.794 µM [inhibitor, full curve] | –
CN(C(=O)Cc1ccccc1)[C@H](CN1CCCC1)c1ccccc1 | – | inactive: 14.5%
CC1(C)C2CC=C(CN3CCOCC3)C1C2 (centres undefined) | inconclusive: 31.6 µM [inhibitor, single point] | –
CCCN1CCO[C@@H]2c3cc(O)ccc3OC[C@H]21 | inconclusive: 25.1 µM [inhibitor, single point] | –
COC[C@H]1OC(=O)c2coc3c2[C@@]1(C)C1=C(C3=O)[C@H]2CCC(=O)[C@@]2(C)C[C@H]1OC(C)=O | inconclusive: 7.94 µM [inhibitor, full curve] | –
CCOC(=O)c1ncn2c1CN(C)C(=O)c1cc(N=[N+]=[N-])ccc1-2 | – | inactive: -4.99%
CC(=NCCO)c1c(O)n(C2CCCCC2)c(=O)[nH]c1=O | inconclusive: 12.6 µM [inhibitor, partial curve, poor fit] | –
Oc1ccc2c3c1O[C@H]1c4[nH]c5ccccc5c4C[C@]4(O)[C@H](C2)N(CC2CC2)CC[C@@]314 | inconclusive: 25.1 µM [inhibitor, single point] | –
COCCCn1c(N)c(C(=O)OCCOC)c2nc3ccccc3nc21 | – | inactive: -27%
N[C@@H](Cc1c[nH]c2ccccc12)c1nnc(SCc2ccc(Cl)cc2)o1 | inconclusive: 39.8 µM [inhibitor, single point] | –
O=C(Cn1ncc2c3ccccc3n(Cc3ccccc3)c2c1=O)N1CCC2(CC1)OCCO2 | inconclusive: 20 µM [inhibitor, partial curve, poor fit] | –
CC(C)CC(C)N (centres undefined) | inconclusive: 15.8 µM [inhibitor, partial curve] | –

Compound | Potency | activity, negative = inhibition
CN(C)C(=O)Cl | – | inactive: -10.5%
CC1CC2CC(=O)C3CCCN4CCCC2[C@]34C1 (some centres undefined) | inconclusive: 1.26 µM [inhibitor, full curve, poor fit] | –
CCOC(=O)c1c(C)n(Cc2ccccc2)c2ccc(OCC(O)Cn3nc(C)nc3C)cc12 (centres undefined) | inconclusive: 3.16 µM [inhibitor, full curve, poor fit] | –
O=C(Cc1ccccc1)Oc1ccccc1N1C(=O)CCC1=O | inconclusive: 1 µM [inhibitor, full curve, poor fit] | –
COc1ccc(C(=O)O[C@H]2CC[C@@]3(C)[C@H]4CC[C@H]5[C@]3(C[C@]3(O)[C@H]6CN7C[C@H](C)CC[C@H]7[C@](C)(O)[C@]6(O)[C@H](O)C[C@]53O)O[C@]24O)cc1OC | inconclusive: 0.631 µM [inhibitor, partial curve] | –
O=C1C=CC(=O)C=C1 | inconclusive: 25.1 µM [inhibitor, single point] | –
ClCCCCl | – | inactive: 5.18%
CN1C[C@@H](C(=O)N[C@@]2(C)O[C@]3(O)C4CCCN4C(=O)[C@@H](Cc4ccccc4)N3C2=O)C=C2c3cccc4[nH]cc(c34)C[C@@H]21 (some centres undefined) | inconclusive: 31.6 µM [inhibitor, partial curve, poor fit] | –
O=S(=O)(O)F | – | inactive: 23.1%
O=C(O)[C@@H]1C[C@H]2C[C@@H](CP(=O)(O)O)CC[C@H]2CN1 | – | inactive: 16.7%
CC(C)[C@H](CO)Nc1nc(Nc2cccc(Cl)c2)c2ncn(C(C)C)c2n1 | inconclusive: 31.6 µM [inhibitor, partial curve, poor fit] | –
C[C@]12CCC(=O)C=C1CC[C@@H]1[C@@H]2CC[C@]2(C)C(=O)CC[C@@H]12 | inconclusive: 39.8 µM [inhibitor, single point] | –
C[C@@H]1OC=C2[C@@H](O)[C@H]3O[C@H]3C(=O)[C@@]23[C@H]1[C@H]1C2=C([C@@H](O)[C@H]4O[C@@H]4C2=O)[C@@H]3O[C@@H]1C | – | inactive: 6.54% [at 11.5 µM]
COC(=O)C(O)(c1ccc(N(C)S(=O)(=O)c2ccccc2)cc1)C(F)(F)F (centres undefined) | inconclusive: 31.6 µM [inhibitor, single point] | –
CC(=O)Nc1ccc(S(=O)(=O)N2CCSC2c2ccc(C)cc2)cc1 (centres undefined) | inconclusive: 20 µM [inhibitor, single point] | –
COc1cc(CN2C(=O)NC(=O)C3(Cc4cc(C)ccc4N(C)C3)C2=O)cc(OC)c1 (centres undefined) | – | inactive: -6.46%
COc1ccccc1N1CCN(Cc2c(F)cccc2F)CC1 | inconclusive: 0.0251 µM [inhibitor, full curve, poor fit] | –
C=CCN1CCc2cccc3c2[C@@H]1Cc1ccc(O)c(O)c1-3 | inconclusive: 15.8 µM [inhibitor, single point] | –
C=CCN1C[C@H](C)N([C@@H](c2ccccc2)c2ccc(C(=O)N(CC)CC)cc2)C[C@H]1C | – | inactive: -6.17%
Nc1cccc(C(F)(F)F)c1 | – | inactive: 21.4%
CN(C)c1ccc(N)cc1 | inconclusive: 39.8 µM [inhibitor, single point] | –
COc1ccc(OC)c(C(O)C(C)N)c1 (centres undefined) | – | inactive: 30.1%
CCOC(=O)c1c(N)n(Cc2ccc(OC)cc2)c2nc3ccccc3nc12 | inconclusive: 12.6 µM [inhibitor, partial curve] | –
